In the supplement of paper PMC12217912:
The other results are listed elsewhere or left out. Sequences were assembled here from the parent chain. Inactive controls read about 0.05.

B1: TEV protease; numbered along this chain (parent)
chain: MGESLFKGPRDYNPISSSICHLTNESDGHTTSLYGIGFGPFIITNKHLFRRNNGTLVVQSLHGVFKVKDTTTLQQHLVDGRDMIIIRMPKDFPPFPQKLKFREPQREERICLVTTNFQTKSMSSMVSDTSCTFPSGDGIFWKHWIQTKDGQCGSPLVSTRDGFIVGIHSASNFTNTNNYFTSVPKNFMELLTNQEAQQWVSGWRLNADSVLWGGHKVFMVKPEEPFQPVKEATQL

Variants of: B1
Test: raw area under fraction-flipped curve 0-4 h after induction (AUC4h, not background-subtracted), DNA-recorder readout of cleavage of the substrate (dimensionless); higher = more cleavage of the substrate by the protease variant
Settings: temperature: 34 °C; time window: 0-4 h after rhamnose induction
Method: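 In vivo DNA recorder in E. coli TOP10(DE3) ΔrhaA at 34 °C. Each TEVp single-site mutant (parent TEVp 0) is paired with a single-site variant of the 7-mer TEVs (canonical ENLYFQ|S). The substrate sits between flexible linkers in a Bxb1-sfGFP-TEVs-SsrA fusion, so cleavage stabilises Bxb1 and speeds flipping of a recombination array, read by NGS. The value is the raw area under the fraction-flipped curve over 0-4 h after rhamnose induction (AUC4h), with ≥20 reads per time point. It is not background-subtracted; inactive controls average about 0.047.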
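Note: Bxb1 expression induced with 0.2% (w/v) L-rhamnose at OD600 near 0.5, cultures sampled hourly, flipped fraction per protease–substrate barcode pair counted by paired-end Illumina sequencing.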

Q: With M83E as the variant, how does the “area with substrate FNLYFQS” value read?
A: 0.0566

Q: And the “area with substrate HNLYFQS” value?
A: 0.0545

Q: And the “area with substrate LNLYFQS” value?
A: 0.083

Q: And the “area with substrate MNLYFQS” value?
A: 0.0631

Q: And the “area with substrate PNLYFQS” value?
A: 0.0593

Q: And the “area with substrate WNLYFQS” value?
A: 0.064

Q: What does the source list for M83L?
A: area with substrate FNLYFQS: 0.053; area with substrate GNLYFQS: 0.0645; area with substrate HNLYFQS: 0.0639; area with substrate INLYFQS: 0.0559; area with substrate LNLYFQS: 0.0591; area with substrate MNLYFQS: 0.0614; area with substrate WNLYFQS: 0.0513

Q: Which “area with substrate FNLYFQS” value does the source give for C111A here?
A: 0.0576

Q: What about the “area with substrate MNLYFQS” value of the same variant?
A: 0.0751

Q: And the “area with substrate NNLYFQS” value?
A: 0.0741

Q: And the “area with substrate SNLYFQS” value?
A: 0.0475

Q: With N45G as the variant, how does the “area with substrate FNLYFQS” value read?
A: 0.0415

Q: What about the “area with substrate INLYFQS” value of the same variant?
A: 0.0398

Q: What about the “area with substrate KNLYFQS” value of the same variant?
A: 0.0609

Q: What about the “area with substrate LNLYFQS” value of the same variant?
A: 0.0611

Q: What about the “area with substrate MNLYFQS” value of the same variant?
A: 0.0658

Q: What about the “area with substrate NNLYFQS” value of the same variant?
A: 0.0602

Q: What about the “area with substrate QNLYFQS” value of the same variant?
A: 0.0592

Q: And the “area with substrate SNLYFQS” value?
A: 0.0675

Q: What about the “area with substrate TNLYFQS” value of the same variant?
A: 0.0527

Q: And the “area with substrate WNLYFQS” value?
A: 0.0541

Q: What about the “area with substrate YNLYFQS” value of the same variant?
A: 0.0611

Q: Which “area with substrate FNLYFQS” value does the source give for S121F here?
A: 0.0926

Q: And the “area with substrate GNLYFQS” value?
A: 0.0605

Q: What about the “area with substrate SNLYFQS” value of the same variant?
A: 0.0661

Q: And the “area with substrate WNLYFQS” value?
A: 0.051

Q: What about the “area with substrate YNLYFQS” value of the same variant?
A: 0.0662

Q: For K90M, which “area with substrate FNLYFQS” value is on record?
A: 0.0625

Q: What about the “area with substrate GNLYFQS” value of the same variant?
A: 0.0715

Q: What about the “area with substrate QNLYFQS” value of the same variant?
A: 0.0319

Q: What about the “area with substrate SNLYFQS” value of the same variant?
A: 0.0772

Q: And the “area with substrate WNLYFQS” value?
A: 0.0588

Q: Which results are given for F6A?
A: area with substrate FNLYFQS: 0.0663; area with substrate TNLYFQS: 0.0665

Q: For Y12R, which “area with substrate FNLYFQS” value is on record?
A: 0.0727

Q: And the “area with substrate GNLYFQS” value?
A: 0.0635

Q: What about the “area with substrate HNLYFQS” value of the same variant?
A: 0.0683

Q: What about the “area with substrate INLYFQS” value of the same variant?
A: 0.0874

Q: And the “area with substrate KNLYFQS” value?
A: 0.0511

Q: What about the “area with substrate LNLYFQS” value of the same variant?
A: 0.0735

Q: What about the “area with substrate MNLYFQS” value of the same variant?
A: 0.0598

Q: And the “area with substrate NNLYFQS” value?
A: 0.0462

Q: And the “area with substrate PNLYFQS” value?
A: 0.0762

Q: And the “area with substrate QNLYFQS” value?
A: 0.0698

Q: What about the “area with substrate SNLYFQS” value of the same variant?
A: 0.0619

Q: What about the “area with substrate TNLYFQS” value of the same variant?
A: 0.0742

Q: And the “area with substrate WNLYFQS” value?
A: 0.051

Q: And the “area with substrate YNLYFQS” value?
A: 0.0616

Q: For D82M, which “area with substrate FNLYFQS” value is on record?
A: 0.0506

Q: And the “area with substrate GNLYFQS” value?
A: 0.0654

Q: And the “area with substrate HNLYFQS” value?
A: 0.0574

Q: And the “area with substrate PNLYFQS” value?
A: 0.0618

Q: What about the “area with substrate SNLYFQS” value of the same variant?
A: 0.0477

Q: What about the “area with substrate VNLYFQS” value of the same variant?
A: 0.0446

Q: What about the “area with substrate YNLYFQS” value of the same variant?
A: 0.0493

Q: Which “area with substrate FNLYFQS” value does the source give for K98V here?
A: 0.0669

Q: And the “area with substrate HNLYFQS” value?
A: 0.0721

Q: And the “area with substrate INLYFQS” value?
A: 0.0607

Q: And the “area with substrate PNLYFQS” value?
A: 0.0837

Q: What about the “area with substrate QNLYFQS” value of the same variant?
A: 0.057

Q: What about the “area with substrate SNLYFQS” value of the same variant?
A: 0.0668

Q: And the “area with substrate WNLYFQS” value?
A: 0.0541

Q: Which “area with substrate FNLYFQS” value does the source give for K98R here?
A: 0.0652

Q: And the “area with substrate GNLYFQS” value?
A: 0.0673

Q: And the “area with substrate HNLYFQS” value?
A: 0.0612

Q: What about the “area with substrate INLYFQS” value of the same variant?
A: 0.0763

Q: What about the “area with substrate KNLYFQS” value of the same variant?
A: 0.0748

Q: And the “area with substrate LNLYFQS” value?
A: 0.0749

Q: What about the “area with substrate MNLYFQS” value of the same variant?
A: 0.0711

Q: And the “area with substrate PNLYFQS” value?
A: 0.0792

Q: And the “area with substrate RNLYFQS” value?
A: 0.0837

Q: And the “area with substrate TNLYFQS” value?
A: 0.0504

Q: What about the “area with substrate VNLYFQS” value of the same variant?
A: 0.0564

Q: What about the “area with substrate WNLYFQS” value of the same variant?
A: 0.0372

Q: What about the “area with substrate YNLYFQS” value of the same variant?
A: 0.0597

Q: With R109K as the variant, how does the “area with substrate FNLYFQS” value read?
A: 0.0773

Q: What about the “area with substrate GNLYFQS” value of the same variant?
A: 0.0644

Q: What about the “area with substrate NNLYFQS” value of the same variant?
A: 0.0522

Q: And the “area with substrate PNLYFQS” value?
A: 0.066

Q: What about the “area with substrate RNLYFQS” value of the same variant?
A: 0.0432

Q: What about the “area with substrate WNLYFQS” value of the same variant?
A: 0.0423

Q: With S124Y as the variant, how does the “area with substrate FNLYFQS” value read?
A: 0.0691

Q: What about the “area with substrate HNLYFQS” value of the same variant?
A: 0.0628

Q: What about the “area with substrate LNLYFQS” value of the same variant?
A: 0.0666

Q: What about the “area with substrate QNLYFQS” value of the same variant?
A: 0.0752

Q: And the “area with substrate WNLYFQS” value?
A: 0.0699

Q: With S124C as the variant, how does the “area with substrate FNLYFQS” value read?
A: 0.069

Q: What about the “area with substrate HNLYFQS” value of the same variant?
A: 0.0538

Q: And the “area with substrate KNLYFQS” value?
A: 0.0826

Q: What about the “area with substrate MNLYFQS” value of the same variant?
A: 0.0666

Q: What about the “area with substrate WNLYFQS” value of the same variant?
A: 0.0561

Q: What about the “area with substrate YNLYFQS” value of the same variant?
A: 0.0514

Q: For V58M, which “area with substrate FNLYFQS” value is on record?
A: 0.0483

Q: And the “area with substrate GNLYFQS” value?
A: 0.0455

Q: And the “area with substrate INLYFQS” value?
A: 0.0635

Q: And the “area with substrate LNLYFQS” value?
A: 0.0654

Q: And the “area with substrate NNLYFQS” value?
A: 0.0364

Q: And the “area with substrate PNLYFQS” value?
A: 0.0633

Q: And the “area with substrate SNLYFQS” value?
A: 0.0851

Q: Which “area with substrate FNLYFQS” value does the source give for E108G here?
A: 0.0575

Q: And the “area with substrate GNLYFQS” value?
A: 0.0463

Q: And the “area with substrate LNLYFQS” value?
A: 0.0619

Q: What about the “area with substrate PNLYFQS” value of the same variant?
A: 0.0446

Q: With D69F as the variant, how does the “area with substrate FNLYFQS” value read?
A: 0.0368

Q: And the “area with substrate INLYFQS” value?
A: 0.0432

Q: And the “area with substrate KNLYFQS” value?
A: 0.0583

Q: What about the “area with substrate MNLYFQS” value of the same variant?
A: 0.0544

Q: And the “area with substrate VNLYFQS” value?
A: 0.0721

Q: What about the “area with substrate WNLYFQS” value of the same variant?
A: 0.0602

Q: What does the source list for L22M?
A: area with substrate FNLYFQS: 0.0569; area with substrate GNLYFQS: 0.0812; area with substrate HNLYFQS: 0.0567; area with substrate INLYFQS: 0.0646; area with substrate KNLYFQS: 0.0694; area with substrate LNLYFQS: 0.0728; area with substrate NNLYFQS: 0.061; area with substrate QNLYFQS: 0.084; area with substrate SNLYFQS: 0.067; area with substrate TNLYFQS: 0.0721; area with substrate WNLYFQS: 0.0888; area with substrate YNLYFQS: 0.0627

Q: For G150Y, which “area with substrate FNLYFQS” value is on record?
A: 0.0531

Q: And the “area with substrate GNLYFQS” value?
A: 0.0854

Q: And the “area with substrate HNLYFQS” value?
A: 0.0624

Q: And the “area with substrate KNLYFQS” value?
A: 0.0537

Q: And the “area with substrate LNLYFQS” value?
A: 0.0163

Q: What about the “area with substrate NNLYFQS” value of the same variant?
A: 0.0569

Q: And the “area with substrate PNLYFQS” value?
A: 0.0701

Q: What about the “area with substrate SNLYFQS” value of the same variant?
A: 0.0447

Q: And the “area with substrate TNLYFQS” value?
A: 0.0585

Q: What about the “area with substrate WNLYFQS” value of the same variant?
A: 0.0628

Q: And the “area with substrate YNLYFQS” value?
A: 0.0446

Q: Which results are given for S60G?
A: area with substrate FNLYFQS: 0.0567; area with substrate GNLYFQS: 0.0591; area with substrate INLYFQS: 0.0748; area with substrate NNLYFQS: 0.0666; area with substrate PNLYFQS: 0.0681; area with substrate YNLYFQS: 0.0633

Q: What does the source list for S60W?
A: area with substrate FNLYFQS: 0.0784; area with substrate GNLYFQS: 0.0668; area with substrate HNLYFQS: 0.074; area with substrate KNLYFQS: 0.0848; area with substrate LNLYFQS: 0.0896; area with substrate MNLYFQS: 0.0595; area with substrate PNLYFQS: 0.0565; area with substrate RNLYFQS: 0.0677; area with substrate SNLYFQS: 0.0473; area with substrate TNLYFQS: 0.0629; area with substrate VNLYFQS: 0.0629; area with substrate YNLYFQS: 0.0493

Q: Which results are given for P155G?
A: area with substrate FNLYFQS: 0.0558; area with substrate HNLYFQS: 0.0621; area with substrate INLYFQS: 0.0516; area with substrate KNLYFQS: 0.0786; area with substrate MNLYFQS: 0.0538; area with substrate SNLYFQS: 0.0624; area with substrate TNLYFQS: 0.0501; area with substrate WNLYFQS: 0.0686; area with substrate YNLYFQS: 0.0558
